# Measured values taken from publication PMC6919601, “Identification of Plasmodium dipeptidyl aminopeptidase allosteric inhibitors by high throughput screening” (PLoS ONE, 2019).
# Screen size: about 110,000 compounds; about 230 (0.21%) showed an effect of 50% or more. Some of the results follow.
# Biological target: DPAP1 (Plasmodium falciparum, UniProt Q8IIJ9)
# Test: primary screen, percent inhibition; read by cleavage of a fluorogenic dipeptide substrate; higher = more effect of the substance
# Parameters: species or system P. falciparum D10 trophozoite lysates; single well
# 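Further: 30 min substrate incubation versus DMSO and 10 µM JCP410 controls.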
# DPAP1, sequence (Q8IIJ9 whole entry, looked up): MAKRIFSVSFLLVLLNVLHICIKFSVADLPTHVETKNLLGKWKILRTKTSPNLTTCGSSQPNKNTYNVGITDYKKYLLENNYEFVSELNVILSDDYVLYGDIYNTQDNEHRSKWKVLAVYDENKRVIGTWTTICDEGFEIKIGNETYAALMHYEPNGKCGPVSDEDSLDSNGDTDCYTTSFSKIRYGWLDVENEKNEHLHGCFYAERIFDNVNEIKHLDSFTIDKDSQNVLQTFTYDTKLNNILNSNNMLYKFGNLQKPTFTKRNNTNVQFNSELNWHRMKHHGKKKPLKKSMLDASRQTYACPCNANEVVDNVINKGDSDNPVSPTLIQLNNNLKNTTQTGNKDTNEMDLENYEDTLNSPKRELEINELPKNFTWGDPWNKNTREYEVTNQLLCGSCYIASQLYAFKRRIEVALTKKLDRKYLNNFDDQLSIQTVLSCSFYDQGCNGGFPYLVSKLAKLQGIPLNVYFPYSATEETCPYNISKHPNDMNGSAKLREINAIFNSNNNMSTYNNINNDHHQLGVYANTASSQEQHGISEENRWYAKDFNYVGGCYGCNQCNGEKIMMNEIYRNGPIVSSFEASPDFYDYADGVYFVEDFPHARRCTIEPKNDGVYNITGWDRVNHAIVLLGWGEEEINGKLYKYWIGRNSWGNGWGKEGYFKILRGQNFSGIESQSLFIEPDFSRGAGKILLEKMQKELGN
row,Structure (SMILES),% Inhibition @ 10 uM
1,CCCN1CCN(S(=O)(=O)c2ccc(-n3cnnn3)cc2)CC1,2.29%
2,Cc1ccsc1/C=C1\SC(=O)N(C)C1=O,3.79%
3,COc1ccccc1CC(C)NCC(C)(C)CN(C)C (centres unmarked),-3.6%
4,CCNC(=S)N(CCc1c(C)[nH]c2ccc(C)cc12)Cc1ccccn1,-2.29%
5,Cc1ccc2c(=O)cc(C(=O)NCc3ccncc3)oc2c1C,1.7%
6,COCCN(Cc1ccco1)C(=O)Cn1ncc2c(=O)oc3ccc(C)cc3c21,-1.7%
7,Cc1ccc(C)c(OCC(=O)Nc2ncccn2)c1,0.795%
8,COc1cc(NC(C)=O)ccc1NC(=O)c1ccco1,-7.76%
9,CCOC(=O)N1CCN(C2=NS(=O)(=O)C(c3ccc(F)cc3)=C2C)CC1,-2.07%
10,CCOC(=O)/C(C#N)=C(/C)c1ccc(OC)cc1,1.54%
11,O=S(=O)(c1ccccc1)c1nnn2c1nc(NCc1ccccc1Cl)c1sccc12,-0.538%
12,OC(COc1ccc(OCC(O)CN2CCCC2)cc1)CN1CCCC1 (centres unmarked),5.09%
13,O=C(N/C(=C/c1ccccc1)P(=O)(O)c1ccccc1)c1ccccc1,2.7%
14,CCOCCCNC(=O)CCCn1c2ccccc2c2cnnc(O)c21,-0.281%
15,CSc1ccc(Cn2nnc(C(=O)NCc3ccc(C)cc3)c2N)cc1,2.93%
16,COc1ccc(-c2ccc3c(N)c(C(=O)Nc4ccc(F)cc4)sc3n2)cc1OC,-1.6%
17,O=C(N/C(=C\c1ccc2c(c1)OCO2)C(=O)N1CCOCC1)c1ccco1,0.587%
18,O=C1c2n[nH]c(-c3ccccc3O)c2C(c2cccc(Oc3ccccc3)c2)N1CC1CCCO1 (centres unmarked),-1.35%
19,CC1CCCC(N2CCCC(C(N)=O)C2)C1 (centres unmarked),-4.75%
20,O=C1OC2(CCCCC2)OC(=O)C1=Cc1ccc(-c2ccc(Cl)c(C(=O)O)c2)o1,0.146%
21,C=Cc1ccc(Cn2c(C(=O)O)c(CNCc3ccc(OC)cc3OC)c3ccc(C)cc32)cc1,5.12%
22,CC(C)COC(=O)Nc1nn2c(-c3ccccc3)nnc2s1,-6.65%
23,O=C(NCc1ccc2c(c1)OCO2)c1c(Cl)cccc1Cl,0.145%
24,COC(=O)c1ccc(-c2ccco2)n1CC(=O)N1CCc2ccccc2C1,4.51%
25,CC/N=C1\S/C(=C\c2cc(Cl)c(OC)c(OC)c2)C(=O)N1CC,-4.97%
26,CCn1c(SCC(=O)NCCc2ccccc2)nc2c(c1=O)SCC2,-1%

row,Structure (SMILES),% Inhibition @ 10 uM
1,O=[N+]([O-])c1ccc(Cl)c2cccnc12,-7.35%
2,COc1ccccc1OCc1nc(C#N)c(N2CC(C)CC(C)C2)o1 (centres unmarked),-0.958%
3,Cc1sc2c(c1C)CSC(C(=O)NCc1ccccn1)=C2,16.6%
4,Cc1ccc2c(c1)Cc1c(O)nc(-c3ccc(O)cc3)nc1O2,0.655%
5,Cc1ccsc1-c1nc(CSCC(=O)O)c(C)o1,1.42%
6,CN(C(=O)Cn1nc(Cc2cccnc2)c2ccccc2c1=O)C1CCCCC1,-2.92%
7,CC(C)(C)c1ccc(-c2cc(N)n(S(=O)(=O)c3ccccc3)n2)cc1,1.15%
8,O=C(NC(c1ccccc1)c1c(O)ccc2ccccc12)c1ccc(Br)cc1 (centres unmarked),-4.08%
9,Cc1cc(Cl)ccc1OCC(=O)Nc1ccc(S(=O)(=O)N2CCC(C)CC2)cc1,-1.65%
10,O=S(=O)(c1ccc(Cc2ccc(S(=O)(=O)N3CCCCC3)cc2)cc1)N1CCCCC1,3.25%
11,CCOC(=O)c1c(NC(=O)CCCCCN2C(=O)c3ccccc3C2=O)sc2c1CCCC2,-4.77%
12,CC(C)=C1C(=O)NN(c2ccccc2)C1=O,-3.27%
13,Cc1sc(NC(=O)COc2ccccc2)nc1-c1ccccc1,4.37%
14,Cc1ccc(S(=O)(=O)c2nc(S(C)(=O)=O)sc2N2CCOCC2)cc1,-4.04%
15,COc1cc(/C=C2\SC(=N)N(c3ccc(Br)cc3)C2=O)ccc1O,2.95%
16,N#CCNC(=O)C1(NC(=O)CCc2ccccc2)CCCCC1,0.079%
17,NC(=O)C1CCCc2c1[nH]c1ccccc21 (centres unmarked),0.486%
18,Cc1csc(NC(=O)CN(Cc2ccccc2)S(=O)(=O)c2ccc3nc(C)sc3c2)n1,-6.31%
19,CC12C(=O)N(c3cccc(Cl)c3Cl)C(=O)C1C1C=CC2C1 (centres unmarked),-5.15%
20,CCS(=O)(=O)c1nc(S(=O)(=O)c2ccc(C)cc2)c(NCCOC)s1,-2.25%
21,Cc1ccc(CS(=O)(=O)Cc2ccc(C(=O)NCc3cccnc3)o2)cc1,3.79%
22,O=C(CCCCCN1C(=O)c2cccc3cccc(c23)C1=O)N1CCOCC1,-6.11%
23,Cc1cc(-c2ccc(C)c(S(=O)(=O)N(CC(C)C)CC(C)C)c2)on1,-4.9%
24,COc1ccc(-n2cc(-c3ccccc3)c3c(N4CCN(CCO)CC4)ncnc32)cc1,7.04%
25,CCC(C)Oc1ccc(C=C2C(=O)c3ccccc3C2=O)cc1OC (centres unmarked),-5.15%
26,Cn1cc(C(=O)Nc2ccccc2C(C)(C)C)cn1,-5.85%

row,Structure (SMILES),% Inhibition @ 10 uM
1,O=C(NCCc1ccccc1)C1CCN(S(=O)(=O)c2ccc(Br)s2)CC1,-6.57%
2,Cc1nn(CC(=O)NCc2ccco2)c2ccccc12,0.596%
3,CC1CCc2c(sc3ncnc(N4CCN(CCO)CC4)c23)C1 (centres unmarked),-0.85%
4,CC(C)c1nn2cc(-c3cccc(Br)c3)nc2s1,-4.54%
5,COc1ccc(C(=O)N2CCOCC2)c(OC)c1,4.49%
6,O=C(Cn1ccc2cc(S(=O)(=O)N3CCCC3)ccc21)NCCc1ccccc1Cl,-0.899%
7,CN1CCN(CCCC(=O)c2ccc(C3CCCC3)cc2)CC1,-9.7%
8,Cc1cccc2sc(N(CCCN(C)C)C(=O)c3ccccc3Cl)nc12,4.44%
9,CC1CC(C)CN(c2ncnc3scc(-c4ccccc4)c23)C1 (centres unmarked),3.45%
10,COc1cc(CN2CCN(Cc3ccc(C)cc3)CC2)cc(OC)c1OC,-0.795%
11,COc1cccc(C2=CC(c3cccc(F)c3)n3nnnc3N2)c1 (centres unmarked),-1.62%
12,CCOc1cc(-c2nc(C)c(C(C)=O)n2O)ccc1OCC(=O)Nc1cccc(C(F)(F)F)c1,3.99%
13,O=c1oc2ccccc2cc1-c1nc(-c2ccc(Cl)cc2)cs1,-0.975%
14,Cc1cccc(NC(=O)c2ccccc2NC(=O)C2CCCCC2C(=O)O)c1 (centres unmarked),-2.76%
15,O=C(O)C1CCCN(c2ncnc3onc(-c4ccc(Cl)cc4)c23)C1 (centres unmarked),-3.95%
16,CC(C)c1ccc(C=C2C(=O)NC(=O)NC2=O)cc1,4.66%
17,Nc1cc(O)nc(SCC(=O)Nc2nccs2)n1,0.569%
18,COc1cccc(CN2C(=O)c3ccc(C)cc3C2=O)c1,3.53%
19,Cc1cc(C)cc(OCc2nc3cc(Br)cnc3[nH]2)c1,-4.26%
20,CCOC(=O)N1CCN(C(=O)C2CCN(S(=O)(=O)c3ccc(Br)s3)CC2)CC1,-3.87%
21,CCCS(=O)(=O)N1CCCC(C(=O)N2CCCCC2)C1 (centres unmarked),-1.79%
22,COc1ccc(-c2csc(N)c2C(=O)OC(C)C)cc1OC,-3.92%
23,C=Cc1ccc(Cn2c(C(=O)O)c(CNCCc3c[nH]c4ccccc34)c3ccccc32)cc1,0.277%
24,CC(C)CN1C(=O)c2cccc3cc(Br)cc(c23)C1=O,-3.45%
25,O=c1oc2ccccc2cc1-c1csc(-c2nc(-c3cc4ccccc4oc3=O)cs2)n1,3.48%
26,CCN(CC)CCNc1nc2c(c(=O)[nH]c(=O)n2C)n1CC(O)COc1cccc(C)c1 (centres unmarked),-2.91%

row,Structure (SMILES),% Inhibition @ 10 uM
1,Cc1cc(=O)oc2c(CN3CCOCC3)c(O)ccc12,1.13%
2,Cc1nc2ccccc2n1S(=O)(=O)c1ccc2c(c1)C(=O)c1ccccc1C2=O,4.55%
3,COc1ccccc1NS(=O)(=O)c1ccc(NC(=O)C23CC4CC(CC(C4)C2)C3)cc1,-4.69%
4,CSc1nc2c(c(=O)n1C1CCCC1)C1(CCCCC1)Cc1ccccc1-2,-2.21%
5,O=C(CN(Cc1ccc(F)cc1)S(=O)(=O)c1ccccc1)NC1CCCCCC1,-1.39%
6,N#CC1=C(N)OC2=C(C(=O)CC(c3ccccc3)C2)C1c1cccs1 (centres unmarked),-1.38%
7,CCOC(=O)c1c(NC(=O)c2nc(SC)ncc2Cl)sc2c1CCCC2,-2.85%
8,CCC(=O)Nc1sc2c(c1C(N)=O)CCC(C)C2 (centres unmarked),22.7%
9,COc1cc(-c2ncnn2-c2ccc(Cl)cc2)cc(OC)c1OC,5.37%
10,FC(F)(F)c1cccc(-c2nnc(-c3ccncc3)o2)c1,-3.8%
11,COc1cc(C2Nc3cccc4cccc(c34)N2)cc(Br)c1O,-0.641%
12,O=C(O)CN1C(=O)C2C3CC(C2C1=O)C1C(c2cccnc2)c2sc(O)nc2SC31 (centres unmarked),6.31%
13,Cc1cc(C)n(-c2nc3nonc3nc2Nc2cccc(C(F)(F)F)c2)n1,15.9%
14,COc1ccc(NC(=O)CN(c2cc(Cl)ccc2OC)S(C)(=O)=O)cc1,-3.04%
15,Cc1ccccc1Cc1c(C)nc2c(C(=O)n3ccnc3)cnn2c1C,8.9%
16,COc1ccc(OC)c(C2CC(c3ccc(C)cc3)=NN2S(=O)(=O)c2ccccc2)c1 (centres unmarked),0.611%
17,CC(Oc1ccccc1)C(=O)Nc1cccc2cccnc12 (centres unmarked),4.11%
18,COc1ccc(/C=C/C(=O)NCCSc2c[nH]c3ccccc23)cc1OC,3.25%
19,CCOc1ccc(C2N(c3cc(C)on3)C(=O)C3CCCN32)cc1 (centres unmarked),-0.499%
20,Cc1ccc2ncnc(NCCC(=O)O)c2c1,-0.142%
21,C=CCn1c(NCCCOC)nc2c1c(=O)n(C)c(=O)n2C,4.93%
22,COc1ccc(NC(=O)c2nccnc2C(=O)O)cc1,-4.01%
23,CCCN1C(=O)c2[nH]nc(-c3cccc(OC)c3)c2C1c1ccc(O)c(OCC)c1 (centres unmarked),-6.56%
